The values that follow come from PMC4336329 (PLoS ONE, 2015).

Molecules are shown by their SMILES. In all, about 310,000 compounds went through this assay and about 14,000 (4.5%) showed an effect of 50% or more. Effects have a minus sign here. Some of the results follow.
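Note: peak tail current of the secondary pulse compared with the same well before compound.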

Sequence of human ether-à-go-go-related gene (hERG) potassium channel (Q12809 whole entry, looked up): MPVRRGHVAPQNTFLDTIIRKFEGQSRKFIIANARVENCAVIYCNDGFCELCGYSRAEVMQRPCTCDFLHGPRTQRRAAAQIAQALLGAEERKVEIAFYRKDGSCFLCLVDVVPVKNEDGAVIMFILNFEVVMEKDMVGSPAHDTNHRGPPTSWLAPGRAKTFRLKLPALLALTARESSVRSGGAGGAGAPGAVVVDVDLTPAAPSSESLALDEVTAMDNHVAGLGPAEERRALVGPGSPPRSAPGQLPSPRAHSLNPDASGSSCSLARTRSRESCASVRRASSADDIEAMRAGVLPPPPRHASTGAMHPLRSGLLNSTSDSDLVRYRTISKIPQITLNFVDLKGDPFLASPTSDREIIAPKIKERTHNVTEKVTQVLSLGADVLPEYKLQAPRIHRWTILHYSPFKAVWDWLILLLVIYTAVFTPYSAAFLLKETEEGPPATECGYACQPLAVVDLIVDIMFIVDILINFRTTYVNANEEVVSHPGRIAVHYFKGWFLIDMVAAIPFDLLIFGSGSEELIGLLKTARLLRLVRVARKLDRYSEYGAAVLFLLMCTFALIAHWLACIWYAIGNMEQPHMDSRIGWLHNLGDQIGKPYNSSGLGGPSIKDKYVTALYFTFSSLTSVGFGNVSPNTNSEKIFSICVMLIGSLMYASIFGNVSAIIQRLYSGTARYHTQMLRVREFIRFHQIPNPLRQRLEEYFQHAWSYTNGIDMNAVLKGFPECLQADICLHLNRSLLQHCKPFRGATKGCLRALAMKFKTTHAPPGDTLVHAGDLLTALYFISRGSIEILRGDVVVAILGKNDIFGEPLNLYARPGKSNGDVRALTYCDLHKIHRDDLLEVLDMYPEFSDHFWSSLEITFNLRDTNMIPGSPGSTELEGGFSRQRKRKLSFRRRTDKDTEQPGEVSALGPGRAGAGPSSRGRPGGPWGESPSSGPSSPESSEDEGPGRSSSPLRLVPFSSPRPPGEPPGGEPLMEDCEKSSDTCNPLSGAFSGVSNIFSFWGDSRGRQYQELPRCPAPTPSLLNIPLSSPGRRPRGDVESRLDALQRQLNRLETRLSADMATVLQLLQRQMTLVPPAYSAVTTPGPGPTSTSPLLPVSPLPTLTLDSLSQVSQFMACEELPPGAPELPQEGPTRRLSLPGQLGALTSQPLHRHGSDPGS

This assay has as its target human ether-à-go-go-related gene (hERG) potassium channel (human, UniProt Q12809). Put plainly: primary screen, population patch clamp on CHO cells stably expressing hERG.
With `CC(C)C(NC(=O)C12CC3CC(CC(C3)C1)C2)C(=O)NC1=NCCS1` (stereo not drawn), the “hERG current change (%, negative = inhibition) at 10uM” value is given as -1.17%.

In the case of `CCC(CC)c1nnc(NC(=O)CN2C(=O)c3ccccc3C2=O)s1`, the “hERG current change (%, negative = inhibition) at 10uM” value was found to be 21.7%.

Regarding `C[C@H](NC(=O)c1nc[nH]c1C(=O)N[C@@H](Cc1ccccc1)C(=O)OC(C)(C)C)C(=O)OCc1ccccc1`, the “hERG current change (%, negative = inhibition) at 10uM” value turned out to be 8.61%.

In the case of `O=C(CN1C2CCC1CC(NC(=O)C1CC1)C2)NCc1ccccc1` (stereo not drawn), the “hERG current change (%, negative = inhibition) at 10uM” value is given as 6.98%.

As for `Cc1cc(C)cc(NC(=O)CSc2nc3nc(C)cc(C)n3n2)c1`, the “hERG current change (%, negative = inhibition) at 10uM” value is given as -50.2%.

`C=CCn1c(C(C)NC(=O)CCC)nc2ccccc21` (stereo not drawn): the “hERG current change (%, negative = inhibition) at 10uM” value is recorded as -0.796%.

`CC(C)c1nc2sc3ccccc3c(=O)c2c(=O)n1Cc1ccccc1`: the “hERG current change (%, negative = inhibition) at 10uM” value came out at 14.3%.

Turning to `O=C(NCc1cccnc1)Nc1cccc(F)c1`, the “hERG current change (%, negative = inhibition) at 10uM” value is reported as 7.53%.

For the molecule `CS(=O)(=O)Oc1ccccc1/C=C1/N=C(c2ccc(F)cc2)OC1=O`, the “hERG current change (%, negative = inhibition) at 10uM” value is 5.38%.

For `CCC(=O)Nc1ccc(-c2nc(-c3ccccc3)n(CC(=O)N3CCCCC3)n2)cc1`, the “hERG current change (%, negative = inhibition) at 10uM” value was determined as 4.45%.

For the molecule `O=C(NNS(=O)(=O)c1ccc([N+](=O)[O-])cc1)C(=O)Nc1cccc(C(=O)O)c1`, the “hERG current change (%, negative = inhibition) at 10uM” value was 11.9%.

For the molecule `S=C(NCc1ccco1)Nc1ccc2c(c1)OCCO2`, the “hERG current change (%, negative = inhibition) at 10uM” value is -16.3%.

With `O=c1cc(-c2ccccc2)nc(N2CCN(Cc3ccccc3)CC2)[nH]1`, the “hERG current change (%, negative = inhibition) at 10uM” value came to 7.59%.

On to `CC1CC(CC(=O)NNc2nc(-c3ccccc3)cs2)C(=O)O1` (stereo not drawn), for which the “hERG current change (%, negative = inhibition) at 10uM” value was 26.9%.

As to `O=C(O)c1ccc(NC(=O)c2ccc3c(c2)C(=O)N(c2ccccc2)C3=O)cc1`, the “hERG current change (%, negative = inhibition) at 10uM” value was found to be 0.309%.

With `O=C(O)CN1C(=O)/C(=C/C=C/c2ccccc2)SC1=S`, the “hERG current change (%, negative = inhibition) at 10uM” value came out at 6.43%.

On to `COc1ccc(C(c2c[nH]c3ccccc23)c2c[nH]c3ccccc23)cc1O`, for which the “hERG current change (%, negative = inhibition) at 10uM” value is listed as -5.44%.

`COc1ccc2oc(C(=O)NCc3ccco3)c(C)c2c1`: the “hERG current change (%, negative = inhibition) at 10uM” value came to 8.36%.

Take `CCOc1ccc(N2CC(O)(c3ccc(F)cc3)[N+]3=C2CCCC3)cc1.[Br-]` (stereo not drawn): the “hERG current change (%, negative = inhibition) at 10uM” value is -71.6%.

Consider `O=C(O)c1ccccc1C(=O)Nc1nc(-c2ccc3ccccc3c2)cs1`, for which the “hERG current change (%, negative = inhibition) at 10uM” value is given as 28.5%.

In the case of `O=C(Nn1cnnc1)c1cc(Cl)cc(Cl)c1`, the “hERG current change (%, negative = inhibition) at 10uM” value amounted to 24.9%.

On to `COc1cccc(NC(=O)CN(C)C(=O)c2csc3c2CCCC3)c1`, for which the “hERG current change (%, negative = inhibition) at 10uM” value is recorded as -7.46%.

For `NC(=O)NOCc1ncc(C(F)(F)F)cc1Cl`, the “hERG current change (%, negative = inhibition) at 10uM” value stood at 10.4%.

Take `O=C(CSc1ccc(-c2ccco2)nn1)Nc1ccccc1F`: the “hERG current change (%, negative = inhibition) at 10uM” value was -43.4%.

`O=C(NCCCN1CCOCC1)c1ccc2c(=O)n(CCc3ccccc3)c(=O)[nH]c2c1`: the “hERG current change (%, negative = inhibition) at 10uM” value was -0.86%.

As to `COc1ncccc1-c1nnn(-c2ccccc2Br)n1`, the “hERG current change (%, negative = inhibition) at 10uM” value is listed as -2.1%.

For the molecule `CCN1CCN(Cc2nc(N)nc(Nc3ccc(C)c(C)c3)n2)CC1`, the “hERG current change (%, negative = inhibition) at 10uM” value was -65.8%.

`O=C(CSC1=NC2(CCCCC2)N=C1c1ccccc1)Nc1ccc2c(c1)OCCO2`: the “hERG current change (%, negative = inhibition) at 10uM” value is recorded as 4.15%.

As to `O=C(COC(=O)CNC(=O)c1cccc(OC(F)F)c1)NNC(=O)c1ccccc1`, the “hERG current change (%, negative = inhibition) at 10uM” value was determined as 2.87%.

For the molecule `O=C(NCCc1ccc(Cl)cc1Cl)c1cccnc1`, the “hERG current change (%, negative = inhibition) at 10uM” value is -7.34%.

Consider `O=C(NC1(C(F)(F)F)OCCO1)c1ccc(F)cc1`, for which the “hERG current change (%, negative = inhibition) at 10uM” value is on record as 22.7%.

With `CCn1ncc(S(=O)(=O)N2CCN(c3cccc(OC)c3)CC2)c1C`, the “hERG current change (%, negative = inhibition) at 10uM” value worked out at 5.68%.

As to `Cc1cccc(C(=O)NCC(=O)N2CCCC2)c1`, the “hERG current change (%, negative = inhibition) at 10uM” value stood at 7.78%.

As to `CCOC(=O)CSc1nc(C2CC2)cc(-c2ccc(Cl)cc2)c1C#N`, the “hERG current change (%, negative = inhibition) at 10uM” value turned out to be 0.43%.

`O=C(CS(=O)(=O)Cc1ccccc1)Nc1cccnc1`: the “hERG current change (%, negative = inhibition) at 10uM” value turned out to be 12.9%.

As for `Cc1c(N2C(=O)CS/C2=N\N=C\c2ccc(Br)cc2)c(=O)n(-c2ccccc2)n1C`, the “hERG current change (%, negative = inhibition) at 10uM” value is reported as -26.7%.

For `O=Cc1ccc(Oc2ncccn2)cc1`, the “hERG current change (%, negative = inhibition) at 10uM” value is listed as -3.68%.

Turning to `Cc1cccc(OCC(=O)NCCNC(=O)c2ccncc2)c1`, the “hERG current change (%, negative = inhibition) at 10uM” value is 19.9%.

For the molecule `CC(=O)Nc1ccc(S(=O)(=O)N2CCN(CCCOc3ccccc3Cl)CC2)cc1`, the “hERG current change (%, negative = inhibition) at 10uM” value was -49.6%.

With `CC1CCc2c(sc(NC(=O)COC(=O)C3CCCO3)c2C#N)C1` (stereo not drawn), the “hERG current change (%, negative = inhibition) at 10uM” value came out at 1.37%.

Turning to `O=C(N/N=C\c1c(O)ccc2ccccc12)c1ccc(O)cc1`, the “hERG current change (%, negative = inhibition) at 10uM” value is listed as 14.3%.

In the case of `CCN(C(=O)COC(=O)C(Cc1ccccc1)N1C(=O)c2ccccc2C1=O)C1CCS(=O)(=O)C1` (stereo not drawn), the “hERG current change (%, negative = inhibition) at 10uM” value is listed as -29%.

Regarding `Oc1c(Br)cc(/C=N/Nc2nncc3ccccc23)cc1Br`, the “hERG current change (%, negative = inhibition) at 10uM” value is 27.8%.

Take `COc1ccc(CSc2nc(C)cc(=O)[nH]2)cc1`: the “hERG current change (%, negative = inhibition) at 10uM” value was found to be 1.88%.

In the case of `O=C(O)c1cccc(S(=O)(=O)N2CCN(Cc3ccc4c(c3)OCO4)CC2)c1`, the “hERG current change (%, negative = inhibition) at 10uM” value came out at 28.4%.
